The other results are listed elsewhere or left out. At the low end of the ranking the order means little.
molecular target: SIX1-Q177R homeodomain (UniProt Q15475); assay: universal protein binding microarray; details: Universal all-10-mer PBM (8x60K, AMADID 030236), 300 nM GST-tagged protein, Alexa Fluor 488 anti-GST; buffer, salt, pH and temperature not stated; high values mean tight binding; most listed sequences are background and not binding sites; double strand, one strand shown

Row | Sequence | binding signal [E-score]
1 | ACGGCGTG | 0.125
2 | CGCACGGC | 0.0935
3 | CTGGGCAC | -0.0841
4 | ACGGCTAA | -0.158
5 | CAATATAC | -0.156
6 | CCGGCGAG | -0.1
7 | GAACTTCA | -0.206
8 | AAGATGAC | -0.0139
9 | GCCCGCGC | 0.0638
10 | AATCTTCA | -0.298
11 | CTCAACCC | 0.0176
12 | CCCCACGA | 0.153
13 | AAAAGTCT | -0.388
14 | AATTGCGT | -0.0867
15 | AGTTGGGC | -0.121
16 | AGAACATC | -0.238
17 | CAATTCTA | -0.138
18 | CGGGCTTA | -0.0494
19 | ATTCGTCG | -0.0711
20 | GAAGTCGA | -0.166
21 | AACGTTAT | -0.19
22 | AGCACGTG | 0.223
23 | GGGAAGCA | -0.144
24 | GGGACACC | 0.478
25 | AAACTATG | -0.083

Row | Sequence | binding signal [E-score]
26 | ATCGTATA | -0.0841
27 | CGTAAGCC | -0.0366
28 | AAATGCCC | -0.221
29 | CGCAGAAA | -0.216
30 | TACGGACA | 0.168
31 | CTTGTAGA | -0.0594
32 | CACTTCAA | 0.265
33 | AATTTCTG | -0.231
34 | TGATTCAA | -0.0501
35 | ATAGCGTG | 0.159
36 | TCCCACGA | -0.0661
37 | CTAGGGCA | -0.164
38 | TAATATTA | -0.0563
39 | GAGGCTCC | -0.113
40 | AAGCGTGG | -0.157
41 | ACTCACCA | 0.0861
42 | GTCGCTAA | -0.0759
43 | CTGGCAAC | -0.0059
44 | TCACTCCA | -0.0137
45 | GTTTCTGA | -0.00644
46 | ATTAATGA | 0.126
47 | AGTGACTA | -0.125
48 | CCTCACCA | 0.0115
49 | TACAGAAA | -0.0992
50 | GACGTCTC | -0.147

Row | Sequence | binding signal [E-score]
51 | AACAAATG | -0.224
52 | ATCATCAA | -0.264
53 | ATCGCCTA | -0.114
54 | ACCTCTTC | 0.103
55 | CCTAATCG | -0.0704
56 | GGCATCCC | 0.00919
57 | ATTCTGAG | -0.245
58 | GCTGGCTA | -0.198
59 | ACTTGAAA | -0.127
60 | ACAAGGAC | 0.137
61 | CCTCAGAA | -0.0407
62 | ACCGGTAC | 0.031
63 | GGACGTCC | -0.357
64 | AAATCTGT | -0.23
65 | GGGGGGCA | 0.0156
66 | CGTATTGA | -0.175
67 | GAAGTCAC | -0.0711
68 | AGGTCAGC | 0.0653
69 | AAGTGGCT | -0.287
70 | CCCCAACC | 0.0903
71 | CTCAAATC | -0.135
72 | CCAATGAA | -0.231
73 | GGTGCAAC | 0.272
74 | ACTCTTTG | 0.0647
75 | AAGAGTAC | 0.109

Row | Sequence | binding signal [E-score]
76 | AACTGTCT | -0.0999
77 | ATGAAGGC | -0.202
78 | AGTCAACT | 0.0111
79 | CCCGCTGA | 0.159
80 | CCTCGCAA | -0.119
81 | ACCCGAGG | 0.136
82 | ACGTTGGG | 0.123
83 | GATTAATA | 0.0533
84 | CTGCAATA | -0.176
85 | GCTCGGAC | -0.15
86 | GATGCACA | -0.0523
87 | ACCCCCGA | 0.298
88 | AACCCACA | 0.157
89 | AAAAAGTG | 0.00342
90 | AATGCGTC | -0.251
91 | GCACTACA | 0.171
92 | AGCAGTCA | -0.165
93 | GACAGCCA | -0.0789
94 | AATCATGG | -0.14
95 | CTTCCTAA | -0.171
96 | ACGTAGTG | 0.23
97 | AACTTAAC | -0.15
98 | TGGTGGAA | -0.0904
99 | CAAGTGTA | 0.392
100 | GGCCGGAA | -0.098

Row | Sequence | binding signal [E-score]
101 | AGTTTACG | -0.217
102 | ATTGAAGC | -0.0733
103 | CCCACCCG | 0.194
104 | CAATCGTA | -0.123
105 | AAAGAGTC | -0.153
106 | GCTACTAA | 0.0858
107 | CCAGTAGA | -0.0339
108 | CCGGCACC | 0.123
109 | GACAACTA | -0.0873
110 | ACATGGCC | -0.278
111 | CCCTGCCC | 0.081
112 | TCTATCAA | -0.148
113 | AACTGCTG | -0.116
114 | GCAAGTTA | -0.197
115 | ATGATAAG | 0.0198
116 | AACAATGC | 0.0978
117 | CTGCAAGA | -0.0938
118 | ACATAGGT | -0.0202
119 | AAAGCACG | -0.0624
120 | ACGTTATC | -0.0526
121 | ACAGGAGA | 0.0329
122 | AAGATTCT | -0.321
123 | ATTAAATC | -0.0752
124 | CACCCGCA | 0.271
125 | CGTGTTCC | 0.34

Row | Sequence | binding signal [E-score]
126 | CAGTCATA | -0.149
127 | CCGACAGG | -0.213
128 | GCATTCTA | -0.17
129 | AACCAGTG | 0.183
130 | GAGATACA | 0.123
131 | AAGCAGGC | -0.135
132 | CTATGACC | -0.168
133 | GCCGATCA | -0.0706
134 | AATAGTCG | -0.0415
135 | AATACATC | -0.0803
136 | ACCCTGGG | 0.238
137 | GATCATGC | -0.223
138 | ACAAGACT | -0.278
139 | CACTGTAC | 0.194
140 | CCTGGGAA | -0.0948
141 | AGCAGATG | -0.253
142 | CAAACCAG | -0.177
143 | AGGCCAGC | -0.0786
144 | CAGGCCTC | -0.0575
145 | CCAATGGC | -0.146
146 | AGTGCTGA | -0.152
147 | GGCTTTGA | -0.145
148 | CGCTGTTA | -0.254
149 | AGAACGAG | -0.0066
150 | AGAACCCG | 0.0591

Row | Sequence | binding signal [E-score]
151 | AGCTAGGC | -0.182
152 | ATCCTCTG | -0.118
153 | ATCTATCA | -0.26
154 | AAAACTGG | 0.0452
155 | CAGCTTCA | -0.145
156 | CCGCGCTA | 0.0721
157 | CGCTAGAG | -0.0588
158 | ACAATCGC | -0.124
159 | GTATTATA | 0.0861
160 | CTATGATA | -0.106
161 | GCCTCAAA | -0.0712
162 | AGATAAGC | -0.189
163 | AACAGTGT | 0.323
164 | ACCACCTC | 0.0673
165 | AAAGAGAA | -0.223
166 | GGACATCC | -0.23
167 | CAAAGCCC | -0.225
168 | AAAGGACC | -0.151
169 | AGCGCACG | 0.0778
170 | CTGATCAA | -0.11
171 | ACATCAGA | -0.197
172 | ACGCTCCT | -0.169
173 | CCGTTCCA | 0.075
174 | ACCTTAAG | 0.036
175 | AGGGTTTG | 0.0237

Row | Sequence | binding signal [E-score]
176 | ATTTTGCG | -0.0341
177 | CCTAGTTC | -0.101
178 | AGTTTACA | 0.192
179 | TACGACCA | -0.0343
180 | CTAGGTCA | -0.191
181 | ACTACACG | 0.421
182 | ATTGGCCC | -0.172
183 | GTAGACGA | -0.0894
184 | ACTCAGAC | 0.106
185 | AGGTTCCG | 0.0234
186 | CTAAACAA | -0.215
187 | GAATGTAA | -0.185
188 | AGGCATGA | -0.224
189 | CTGAACGC | -0.0516
190 | AAACTCAG | -0.0875
191 | CAAGGCCG | -0.181
192 | AGGAACAC | 0.394
193 | CCTTCTTA | 0.0255
194 | ACCGAGGT | 0.149
195 | CCAGGCAG | 0.0511
196 | GCCTTGCA | -0.297
197 | TGATCACA | 0.0144
198 | ACTTGTGG | 0.135
199 | ACATTGGG | -0.0572
200 | CACACTGA | 0.208

Row | Sequence | binding signal [E-score]
201 | ACCTAACA | 0.203
202 | GCAGAATA | -0.201
203 | AAAGATGT | -0.245
204 | AACCTATG | -0.182
205 | CCGGACAA | 0.0845
206 | GTATGAAA | -0.102
207 | CCATAGGC | -0.155
208 | CACCATTA | 0.266
209 | ATATTTAA | -0.186
210 | GAAACGCC | -0.00711
211 | AGTTTCAA | -0.0833
212 | AAAAAACA | -0.0895
213 | CAGCGGTC | 0.0891
214 | AAGTCTGA | -0.159
215 | AATTAACG | 0.01
216 | AGATGGGG | -0.0587
217 | GAGCACAA | -0.125
218 | GCTAACAC | 0.417
219 | GACCTCCC | -0.0877

— PMC10668032
